Assay results published in ChEMBL document CHEMBL1201862, “PubChem BioAssay data set” (2004).
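Results reflect a 48-hour exposure of cells in 96-well plates to compound at five concentrations. GI50 is the concentration that inhibits growth by half.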 Active and inactive are the calls of the source. Rule as the data show it: active = GI50 up to about 1.1 µM and inactive = higher.

Tests used:
Test in all cases: NCI tumour cell line growth inhibition, 48 h
MOLT-4 = system: MOLT-4
T47D = system: T47D
ACHN = system: ACHN
COLO 205 = system: COLO 205
HL-60 = system: HL-60
LOX IMVI = system: LOX IMVI
NCI-H522 = system: NCI-H522
HOP-62 = system: HOP-62
UACC-257 = system: UACC-257
SW-620 = system: SW-620
DU-145 = system: DU-145
SF-268 = system: SF-268
UO-31 = system: UO-31
U-251 = system: U-251
Malme-3M = system: Malme-3M
PC-3 = system: PC-3
RXF 393 = system: RXF 393
HCT-116 = system: HCT-116
Hs-578T = system: Hs-578T
OVCAR-5 = system: OVCAR-5
A549 = system: A549
MDA-N = system: MDA-N
NCI-H23 = system: NCI-H23
NCI-H460 = system: NCI-H460
SK-MEL-28 = system: SK-MEL-28
SF-295 = system: SF-295
OVCAR-4 = system: OVCAR-4
EKVX = system: EKVX
NCI/ADR-RES = system: NCI/ADR-RES
HOP-92 = system: HOP-92
CCRF-CEM = system: CCRF-CEM
TK-10 = system: TK-10
SNB-75 = system: SNB-75
BT-549 = system: BT-549
HCC 2998 = system: HCC 2998
M14 = system: M14
MCF7 = system: MCF7
MDA-MB-435 = system: MDA-MB-435
SK-OV-3 = system: SK-OV-3
OVCAR-8 = system: OVCAR-8
RPMI-8226 = system: RPMI-8226
UACC-62 = system: UACC-62
SNB-19 = system: SNB-19
786-0 = system: 786-0
SK-MEL-2 = system: SK-MEL-2
K562 = system: K562
SK-MEL-5 = system: SK-MEL-5
HCT-15 = system: HCT-15
KM12 = system: KM12
A498 = system: A498
CAKI-1 = system: CAKI-1
SR = system: SR
MDA-MB-231 = system: MDA-MB-231
OVCAR-3 = system: OVCAR-3
SN12C = system: SN12C
IGROV-1 = system: IGROV-1

In the case of `O=C1Cc2c([nH]c3cc(Cl)cc(Cl)c23)-c2ccccc2N1`, the GI50 (MOLT-4) is reported as inactive: 77.4 µM, the GI50 (T47D) is reported as inactive: > 100 µM and the GI50 (ACHN) is reported as inactive: > 100 µM. For the same compound, the GI50 (COLO 205) was inactive: > 100 µM, the GI50 (HL-60) was inactive: 25.9 µM and the GI50 (LOX IMVI) was inactive: > 100 µM. For the same compound, the GI50 (NCI-H522) was inactive: > 100 µM, the GI50 (HOP-62) was inactive: 59 µM and the GI50 (UACC-257) was inactive: > 100 µM. The GI50 (SW-620) was inactive: > 100 µM, the GI50 (DU-145) was inactive: > 100 µM and the GI50 (SF-268) was inactive: > 100 µM. For the same compound, the GI50 (UO-31) was inactive: > 100 µM, the GI50 (U-251) was inactive: > 100 µM and the GI50 (Malme-3M) was inactive: > 100 µM. For the same compound, the GI50 (PC-3) was inactive: > 100 µM, the GI50 (RXF 393) was inactive: > 100 µM and the GI50 (HCT-116) was inactive: > 100 µM. For the same compound, the GI50 (Hs-578T) was inactive: > 100 µM, the GI50 (OVCAR-5) was inactive: > 100 µM and the GI50 (A549) was inactive: > 100 µM. The GI50 (MDA-N) was inactive: > 100 µM, the GI50 (NCI-H23) was inactive: > 100 µM and the GI50 (NCI-H460) was inactive: > 100 µM. For the same compound, the GI50 (SK-MEL-28) was inactive: > 100 µM, the GI50 (SF-295) was inactive: 77.8 µM and the GI50 (OVCAR-4) was inactive: > 100 µM. For the same compound, the GI50 (EKVX) was inactive: > 100 µM, the GI50 (NCI/ADR-RES) was inactive: > 100 µM and the GI50 (HOP-92) was inactive: > 100 µM. The GI50 (CCRF-CEM) was inactive: > 100 µM, the GI50 (TK-10) was inactive: > 100 µM and the GI50 (SNB-75) was inactive: 29.2 µM. The GI50 (BT-549) was inactive: > 100 µM, the GI50 (HCC 2998) was inactive: > 100 µM and the GI50 (M14) was inactive: > 100 µM. The GI50 (MCF7) was inactive: > 100 µM, the GI50 (MDA-MB-435) was inactive: > 100 µM and the GI50 (SK-OV-3) was inactive: > 100 µM. For the same compound, the GI50 (OVCAR-8) was inactive: > 100 µM, the GI50 (RPMI-8226) was inactive: > 100 µM and the GI50 (UACC-62) was inactive: > 100 µM. The GI50 (SNB-19) was inactive: > 100 µM, the GI50 (786-0) was inactive: > 100 µM and the GI50 (SK-MEL-2) was inactive: > 100 µM. For the same compound, the GI50 (K562) was inactive: 34 µM, the GI50 (SK-MEL-5) was inactive: > 100 µM and the GI50 (HCT-15) was over 100 µM. The GI50 (KM12) was inactive: > 100 µM, the GI50 (A498) was inactive: > 100 µM and the GI50 (CAKI-1) was inactive: > 100 µM. The GI50 (SR) was inactive: > 100 µM, the GI50 (MDA-MB-231) was inactive: > 100 µM and the GI50 (OVCAR-3) was inactive: > 100 µM. The GI50 (SN12C) was inactive: > 100 µM and the GI50 (IGROV-1) was inactive: > 100 µM.
